In publication PMC12040169 (PLOS Biology, 2025):
The list shows a part of the results.

Each compound was assayed on T1, C. trachomatis L2/434/Bu expressing GFP (CTL2-GFP). Conditions: total inclusion area; 28.5 h, 10 µM; inhibitor.
T1 construct: L2/434/Bu GFP intracellular growth in HeLa cells
Parameters: species or system HeLa; C. trachomatis total inclusion area by high-content imaging, normalised to DMSO
Summary of the method: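 Host cell viability was gauged from Hoechst-stained nuclei counts, while chlamydial growth was taken from total inclusion area and inclusion number per well. Cells were fixed and imaged by high-content microscopy once bulk GFP and resorufin fluorescence had been measured.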

First: CCc1nn(CC(=O)N(CC)CC)c(=O)c2cc3sc(C)cc3n12 [CBK284121]
Second: CCn1nc(C)c(CNC(=O)N(Cc2ccccn2)CC(C)C)c1C [CBK304193]
The “% of control remaining” value of the first is higher: 106.707 for the first, 34.3054 for the second.

Compared with Cn1c(=O)n(CC(=O)NCc2ccccc2F)c2cccnc21 [CBK283909], Cc1ncccc1COC(=O)Nc1cnc2ccccc2c1 [CBK200128] is lower in “% of control remaining” value: 72.8433 for the first, 70.2233 for the second.

Compared with COc1cc(OC)nc(C(NC(=O)C2CCN(Cc3cccn3C)CC2)c2ccc(F)cc2)n1 (stereo not drawn) [CBK148170], C=CCN1CCC(C(=O)NC(C)c2ccc(OC)c(OC)c2)CC1 (stereo not drawn) [CBK148924] is lower in “% of control remaining” value: 92.7771 for the first, 90.9913 for the second.

Going from CSCCC(NC(=O)CCc1ccccc1)c1nnc2ccccn12 (stereo not drawn) [CBK304350] to O=C(O)c1ccccc1SC1CC(=O)N(CCc2ccccc2)C1=O (stereo not drawn) [CBK269321], the “% of control remaining” value rises from 56.7358 to 81.9983.

Compared with c1ccc(CNc2nc(-c3ccncc3)cs2)cc1 [CBK058609], CC(=O)Nc1cccc(-c2nccnc2NCc2ccc3c(c2)OCO3)c1 [CBK037972] is higher in “% of control remaining” value: 54.3495 for the first, 100.668 for the second.

Going from OCC(O)/C=N/Nc1nc(Nc2ccccc2)nc(N2CCCCC2)n1 (stereo not drawn) [CBK262042] to FC(F)(F)c1nc2ccccc2nc1SC1CCCCC1 [CBK107205], the “% of control remaining” value falls from 87.1901 to 57.3313.

Going from CC(=O)N1CCC(NC[C@H]2C[C@@H]3CCN2C[C@@H]3c2cc(C3CCCC3)nc(C)n2)CC1 [CBK289129] to CC(C)(C)c1cn(C[C@H]2CC3CCN2C[C@@H]3C(=O)N2CCOCC2)nn1 (stereo partly drawn) [CBK288735], the “% of control remaining” value rises from 94.8399 to 95.4196.

First: CC(=O)c1cc2cnccc2[nH]c1=O [CBK089771]
Second: COc1cccc(NC(=O)CCn2ncc(Cl)c2C)c1 [CBK288012]
The “% of control remaining” value of the first is lower: 54.8074 for the first, 59.5855 for the second.

Going from Cc1ccc(S(=O)(=O)N(C)CCCC#N)cc1 [CBK085945] to COC(=O)CCC(=O)Nc1ccc(S(N)(=O)=O)cc1 [CBK261351], the “% of control remaining” value rises from 64.2578 to 97.7808.

Compared with O=S(=O)(c1ccc(C(F)(F)F)cc1Cl)N1CCN(Cc2ccc(F)cc2F)CC1 [CBK062739], CS(=O)(=O)c1ccc(-c2ccc(C(=O)N3CCN(Cc4ccc(F)c(F)c4)CC3)nc2)cc1 [CBK160485] is lower in “% of control remaining” value: 81.6422 for the first, 81.2548 for the second.

Going from Cc1ccc2nc(CNC(=O)N(C)CCc3c(C)n[nH]c3C)cn2c1 [CBK306984] to Cc1csc(NC(=O)c2c(C)c(C)n[nH]c2=O)n1 [CBK297759], the “% of control remaining” value rises from 48.4871 to 108.036.

First: COc1ccc(C2(C(=O)NCc3ccc(OC(F)(F)F)cc3)CC2)cc1 [CBK149823]
Second: COc1ccc(CNC(=O)c2cc(S(=O)(=O)N3CCOCC3)cs2)cc1 [CBK307577]
The “% of control remaining” value of the first is higher: 84.465 for the first, 42.2559 for the second.

First: Cc1cccnc1Nc1ccc(C2CCCCN2Cc2ccc3nccnc3c2)cn1 (stereo not drawn) [CBK286133]
Second: CCn1c(CN2CCCC2c2nc(N(C)C)ncc2-c2cccc(F)c2)nc2ccccc21 (stereo not drawn) [CBK286500]
The “% of control remaining” value of the first is higher: 96.2771 for the first, 67.8141 for the second.

Going from NS(=O)(=O)c1ccc(NC2=NC(=O)C(CC(=O)Nc3ccccc3)S2)cc1 (stereo not drawn) [CBK266417] to CC(=O)Nc1cccc(NS(=O)(=O)c2ccc(N3CCNCC3)c3ccccc23)c1 [CBK028702C], the “% of control remaining” value falls from 119.177 to 90.7148.

Going from O=[N+]([O-])c1ccc2c(c1)oc1ccc(S(=O)(=O)N3CCCC3)cc12 [CBK268512] to CCCn1cnc2cc(NC(=O)C3CCN(S(=O)(=O)c4ccc(F)cc4)C3)ccc21 (stereo not drawn) [CBK285704], the “% of control remaining” value rises from 69.289 to 90.2045.

Going from Nc1ccc(S(=O)(=O)Nc2nccc(/C=C/c3ccc(Cl)cc3)n2)cc1 [CBK263254] to CCNc1nc(-c2ccc(S(C)(=O)=O)cc2)cn2ccnc12 [CBK066452], the “% of control remaining” value rises from 74.8397 to 105.216.

Compared with COc1cccc2ncn(CCc3csc(N)n3)c(=O)c12 [CBK307679], CNc1nc(N(C)C)nc(-n2cnc(SCCOc3ccccc3C)n2)n1 [CBK288564] is higher in “% of control remaining” value: 40.3105 for the first, 77.1098 for the second.

First: O=C(CSCCOc1ccc(Br)cc1)Nc1ccc2c(c1)OCCO2 [CBK296714]
Second: Cc1ccc(Oc2ccc(NC(=O)Cn3cnnc3C#N)cc2)cc1 [CBK295612]
The “% of control remaining” value of the first is lower: 99.5458 for the first, 102.008 for the second.

Going from COc1ccc(-n2nc3cc(C)c(NC(=S)NC(=O)c4oc5ccccc5c4C)cc3n2)cc1 [CBK264188] to Cc1cc(C(=O)Oc2cccc(NC3=NS(=O)(=O)c4ccccc43)c2)c2ccccc2n1 [CBK265302], the “% of control remaining” value rises from 101.614 to 107.418.

Going from Clc1ccc(OCCCn2ccnc2)c(CN2CCSCC2)c1 [CBK307194] to COc1cc(CN2CCN(Cc3ccccc3F)CC2)cc(OC)c1O [CBK264219], the “% of control remaining” value rises from 65.7927 to 126.184.

Going from CC(C)(C)OC(=O)N1CCC(NC(=O)c2ccc(-c3ccc(S(C)(=O)=O)cc3)cn2)CC1 [CBK174352] to CC(C)(C)OC(=O)N1CCC[C@]2(CCC(=O)N2)[C@H]1c1ccc(F)cc1 [CBK283462], the “% of control remaining” value falls from 119.737 to 82.8749.

Going from Cc1ccc2nc(N(CCCN(C)C)C(=O)c3ccco3)sc2c1 [CBK287639] to CCOc1cccc(-c2ccc(N(C)CCN(C)C)nc2)c1 [CBK036904], the “% of control remaining” value rises from 100.469 to 118.447.

Going from CCOC(=O)c1cnn(C2CCCN(Cc3ccc(C#N)o3)C2)c1 (stereo not drawn) [CBK304045] to CCOc1ccc(-c2ccnc(N[C@H]3CC[C@@H](N)CC3)n2)cc1C(=O)O [CBK307104], the “% of control remaining” value rises from 50.4746 to 69.2184.

Compared with OC1CCC(Nc2cncc(-c3ccc4ccccc4c3)n2)CC1 (stereo not drawn) [CBK065463], COc1ccccc1C1OC(=O)CC1C(=O)N1CCN(c2ccc(Cl)cc2)CC1 (stereo not drawn) [CBK091332] is higher in “% of control remaining” value: 88.1968 for the first, 104.405 for the second.

Going from NC(=S)N1N=C2CCCCC2C1c1ccccc1 (stereo not drawn) [CBK288371] to COc1nccnc1OC1CCN(CCc2ccccc2)CC1 [CBK084258], the “% of control remaining” value rises from 64.5465 to 98.8686.

Going from Cc1ccc(C#N)c(NS(=O)(=O)c2cc(C)c(Cl)cc2C)c1 [CBK045250] to CC(=O)c1cccc(NC(=O)c2cc(S(=O)(=O)N(C)C)ccc2Cl)c1 [CBK265732], the “% of control remaining” value rises from 67.3691 to 87.1329.

First: CN(CCOC(=O)c1cccs1)C(C)(C)C [CBK027559C]
Second: O=S(=O)(NCCc1cccs1)c1cc2c(N3CCNCC3)nccc2s1 [CBK041299C]
The “% of control remaining” value of the first is higher: 105.525 for the first, 82.3521 for the second.

First: CC1CCc2c(sc(NC(=O)CCN3C(=O)c4ccccc4C3=O)c2C(N)=O)C1 (stereo not drawn) [CBK263667]
Second: COc1ccc(NC(=O)c2ccc3c(c2)C(=O)N(Cc2ccncc2)C3=O)cc1 [CBK269660]
The “% of control remaining” value of the first is lower: 79.5797 for the first, 101.592 for the second.

Compared with O=C(Cn1nnc2ccccc21)Nc1ccc(Cl)cn1 [CBK296068], Nc1ccccc1-c1ccccc1NC(=O)C(=O)O [CBK266824] is higher in “% of control remaining” value: 61.9979 for the first, 93.2467 for the second.

Compared with CC(NC(=O)c1cc2ccccc2c(=O)[nH]1)c1ccc(-c2ccccc2)cc1 (stereo not drawn) [CBK297936], Cc1sc(NC(=O)c2ccccc2)c(C(Nc2ccccn2)c2ccc(F)cc2)c1C (stereo not drawn) [CBK296957] is higher in “% of control remaining” value: 55.8701 for the first, 77.233 for the second.

Compared with CC[C@H]1CN(C(=O)c2cccnc2)CC[C@H]1CC(=O)NCc1ccc(F)cc1 [CBK289143], COC(=O)[C@H]1CN(C(=O)CN2CCCC2=O)C[C@@H]1c1ccc(F)cc1 [CBK283507] is higher in “% of control remaining” value: 88.1195 for the first, 100.704 for the second.

Compared with Cc1cc(CNC(=O)c2cc3ccc(Cl)cc3[nH]2)[nH]n1 [CBK281391], O=C(CCCn1c(=O)[nH]c2ccsc2c1=O)Nc1ccc(F)cc1 [CBK287769] is lower in “% of control remaining” value: 108.853 for the first, 95.7144 for the second.

Compared with CCc1nc2ccc(C(=O)N(C)Cc3ccco3)cn2c1N(C)C(=O)c1ccncc1 [CBK145479], COc1ccc(-c2noc(COc3cccc(C(=O)O)c3)n2)c(OC)c1 [CBK298279] is higher in “% of control remaining” value: 86.9948 for the first, 98.2192 for the second.

Going from CSc1nnc2c(n1)OC(/C=C/c1ccccc1)N(C(C)=O)c1ccccc1-2 (stereo not drawn) [CBK264453] to Cc1ccc(-n2ncc3c(=O)n(Cc4ccccc4C)cnc32)c(C)c1 [CBK287695], the “% of control remaining” value falls from 108.048 to 86.3507.

First: O=[N+]([O-])c1cccc(-c2nc(-c3ccccc3)c(-c3ccc4oc5ccc(-c6[nH]c(-c7cccc([N+](=O)[O-])c7)nc6-c6ccccc6)cc5c4c3)[nH]2)c1 [CBK261433]
Second: O=C(O)c1[nH]c2ccccc2c1C(c1c(F)cccc1Cl)c1c(C(=O)O)[nH]c2ccccc12 [CBK267797]
The “% of control remaining” value of the first is higher: 104.634 for the first, 103.329 for the second.

Going from CC(C)(C)c1ccc(S(=O)(=O)N2CCC3(CC2)OCCO3)cc1 [CBK038429] to O=C(CN1CCCCC1)Nc1ccc(NC(=O)CN2CCCCC2)cc1 [CBK265421], the “% of control remaining” value rises from 60.5601 to 104.493.

Going from Cc1cc(=[N+]2CCCCC2)cc(C)o1 [CBK022824I] to Cc1cnc(NCC2(CO)CCOCC2)nc1N(C)C [CBK307026], the “% of control remaining” value falls from 83.4338 to 51.4367.

Going from FC(F)(F)c1cccc(-n2cc(-c3cccnc3)nn2)c1 [CBK113053] to Cc1ccc(Oc2ccc(C(F)(F)F)cc2[N+](=O)[O-])c(Br)c1 [CBK002817], the “% of control remaining” value rises from 81.5499 to 115.883.

First: Cc1csc(C2CN(Cc3ccn(C)c(=O)c3)CCO2)n1 (stereo not drawn) [CBK305763]
Second: COc1ccc(S(=O)(=O)NC(C)C(=O)NCc2cccnc2)cc1Cl (stereo not drawn) [CBK269384]
The “% of control remaining” value of the first is lower: 71.8445 for the first, 114.528 for the second.
